Results taken from PubChem BioAssay AID902 (National Center for Advancing Translational Sciences (NCATS), 2007).
Hit rate of the full screen: of about 130,000 compounds, about 1,900 (1.5%) were called active. The inconclusive results got no clear call from the source; some entries with a clear call stand among them for comparison. Calls come from the whole dose curve; as a rule, active = well fitted cell-killing curve with a large enough effect; inconclusive = small, poorly fitted or top-dose-only effect; inactive = no such curve, though single readings can be large or run the other way. Where the call is inconclusive, the potency comes from a doubtful curve fit.

Assay: qHTS Screen for Compounds that Selectively Target Cancer Cells with p53 Mutations: Cytotoxicity of p53ts Cells at the Nonpermissive Temperature; note: nearly all actives have a fitted effect of over 55% in size
Settings: H1299-p53A138V viability at 39C, ATP luminescence, 24 h; activity change, negative = cell killing: at 46.1 µM (top of the series)
% is set by controls: 0 for no effect and ±100 for the full control effect; potency is the fitted concentration of half-maximal effect; tags give direction and shape of the fitted curve.

**Q.** With `CCn1cc(C(=O)N2CCN(c3ccccn3)CC2)c2cc(OC)c(OC)cc2c1=O` as the compound, how does the Potency read?
**A.** inactive

**Q.** Which Potency does the source give for `O=C(Nc1ccc2c(c1)OCO2)c1cc(C2CC2)on1` here?
**A.** inconclusive: 10 µM [cytotoxic, partial curve]

**Q.** Which Potency does the source give for `Cc1ccccc1-n1nc(CO)c(C(=O)NCC(c2ccccc2)c2ccccc2)n1` here?
**A.** inconclusive: 2 µM [cytotoxic, partial curve]

**Q.** With `CCCc1n[nH]c2c1/C(=N/O)CC(c1ccccc1)C2` (stereo not given) as the compound, how does the Potency read?
**A.** inactive

**Q.** With `Cc1cc(/C=N/n2c(COc3ccccc3C)nc3ccccc3c2=O)c(O)c([N+](=O)[O-])c1` as the compound, how does the Potency read?
**A.** inconclusive: 2 µM [cytotoxic, full curve, poor fit]

**Q.** Which Potency does the source give for `Cn1c(=O)c2c(nc(NCCc3ccccc3)n2Cc2ccc(Cl)cc2)n(C)c1=O` here?
**A.** inconclusive: 12.6 µM [cytotoxic, single point]

**Q.** Which Potency does the source give for `O=C(Nc1nc2n(n1)C(c1ccc(Cl)cc1)CC(c1ccc(Cl)cc1)N2)c1ccco1` (stereo not given) here?
**A.** inconclusive: 25.1 µM [cytotoxic, single point]

**Q.** Which Potency does the source give for `O=C(NCc1ccccc1F)C(=O)NCC(c1ccco1)S(=O)(=O)c1cccs1` (stereo not given) here?
**A.** inactive

**Q.** Which Potency does the source give for `CCOc1ccc(-c2oc3ccc(C)cc3c(=O)c2O)cc1` here?
**A.** inconclusive: 31.6 µM [cytotoxic, single point]

**Q.** For `CCOC(=O)c1c(C)[nH]c(C(=O)OCC(=O)Nc2cc(C)ccc2OC)c1C`, which Potency is on record?
**A.** inconclusive: 10 µM [cytotoxic, partial curve]

**Q.** For `Cc1ccc(N(C(=O)Cn2nnc3ccccc32)C(C(=O)NCc2ccco2)c2ccc(C)o2)cc1` (stereo not given), which Potency is on record?
**A.** inactive

**Q.** Which Potency does the source give for `COc1ccccc1C(=O)NC(=O)Nc1ccc(-n2nc(C(F)(F)F)cc2C(F)(F)F)cc1` here?
**A.** inconclusive: 31.6 µM [cytotoxic, single point]

**Q.** Which Potency does the source give for `O=C(Nc1ccon1)c1cc2c(s1)CCCCCC2` here?
**A.** inconclusive: 10 µM [cytotoxic, single point]

**Q.** For `COc1cc(CN(C(=O)c2oc3ccccc3c2C)C2CCS(=O)(=O)C2)cc(OC)c1OC` (stereo not given), which Potency is on record?
**A.** inactive

**Q.** For `O=C(NCc1ccccc1Cl)C1CCC(CNS(=O)(=O)c2ccc(Br)s2)CC1` (stereo not given), which Potency is on record?
**A.** active: 12.6 µM

**Q.** Which Potency does the source give for `Cc1cccc(-c2nc(Cn3c(SCc4cc(C)ccc4C)nc4ccncc43)c(C)o2)c1` here?
**A.** inconclusive: 31.6 µM [cytotoxic, single point]

**Q.** For `COc1ccc(CCNC(=O)c2nn(C)c3c2CSc2ccccc2-3)cc1OC`, which Potency is on record?
**A.** inconclusive: 25.1 µM [cytotoxic, single point]

**Q.** For `O=c1cc(-c2ccccc2)[nH]c2nc3ccccc3n12`, which Potency is on record?
**A.** active: 2 µM

**Q.** With `COc1cc(NS(=O)(=O)c2ccc3oc(=O)c4ncn(C)c4c3c2)cc(OC)c1` as the compound, how does the Potency read?
**A.** inconclusive: 12.6 µM [cytotoxic, partial curve, poor fit]

**Q.** Which Potency does the source give for `CCN1CCN(c2cc(C)c3cc(NC(=O)/C=C/c4cccc(Cl)c4)ccc3n2)CC1` here?
**A.** active: 3.16 µM

**Q.** With `O=C(Nc1ccc(NC(=O)c2ccco2)nc1)c1ccccn1` as the compound, how does the Potency read?
**A.** active: 12.6 µM

**Q.** Which Potency does the source give for `O=C(CCCc1ccccc1)c1ccc2c(c1)OCCO2` here?
**A.** active: 11.2 µM

**Q.** For `CSc1nc(Cl)c(Cc2ccc(OC(C)C)cc2)c(N(C)C)n1`, which Potency is on record?
**A.** inconclusive: 3.98 µM [cytotoxic, single point]

**Q.** Which Potency does the source give for `CCN(CC)c1ccc2c(C)cc(=O)oc2c1` here?
**A.** inactive

**Q.** With `COc1ccc(-n2cc(C(=O)NC(C)c3ccccc3)c3ccccc3c2=O)cc1` (stereo not given) as the compound, how does the Potency read?
**A.** inconclusive: 0.02 µM [cytotoxic, full curve, poor fit]

**Q.** Which Potency does the source give for `Cc1cccc(C2C=C(c3ccc(F)cc3)Nc3nc4ccccc4n32)c1` (stereo not given) here?
**A.** active: 10 µM

**Q.** Which Potency does the source give for `CCOc1ccc(Cn2c(CNS(=O)(=O)c3ccc([N+](=O)[O-])cc3)nc3cccnc32)cc1` here?
**A.** inconclusive: 31.6 µM [cytotoxic, single point]

**Q.** Which Potency does the source give for `Cc1c(NS(C)(=O)=O)cccc1-c1nc2ccccc2s1` here?
**A.** inconclusive: 6.31 µM [cytotoxic, single point]

**Q.** Which Potency does the source give for `COc1ccccc1-c1cc(C(F)(F)F)nc(S(=O)(=O)CCCC(=O)Nc2ccc(F)c(Cl)c2)n1` here?
**A.** inconclusive: 25.1 µM [cytotoxic, single point]

**Q.** With `CCOC(=O)c1nn(-c2ccc3c(c2)CCN3C(C)=O)cc1O` as the compound, how does the Potency read?
**A.** active: 3.98 µM

**Q.** With `Cc1oc(-c2ccccc2F)nc1CS(=O)(=O)CC(=O)N1CCN(c2ccc(Cl)cc2)CC1` as the compound, how does the Potency read?
**A.** inconclusive: 17.8 µM [cytotoxic, partial curve, poor fit]

**Q.** Which Potency does the source give for `c1ccc(-c2noc(-c3cccnc3)n2)nc1` here?
**A.** active: 12.6 µM

**Q.** Which Potency does the source give for `Cc1ccc(C)c(N2CCN(C(=O)C3CCN(C(=O)c4cc5sccc5n4C)CC3)CC2)c1` here?
**A.** inactive

**Q.** Which Potency does the source give for `COCCCN(C(C)=O)c1nc(-c2ccccc2)cs1` here?
**A.** inconclusive: 15.8 µM [cytotoxic, partial curve]

**Q.** For `Cc1ccc(C(C)NC(=O)c2ccco2)cc1C` (stereo not given), which Potency is on record?
**A.** inconclusive: 0.1 µM [cytotoxic, full curve, poor fit]

**Q.** Which Potency does the source give for `CCc1nnc(NC(=O)Nc2ccccc2OC)s1` here?
**A.** inactive

**Q.** With `CCCCC(=O)Nc1cc(-c2nc3cccnc3s2)ccc1C` as the compound, how does the Potency read?
**A.** inconclusive: 31.6 µM [cytotoxic, single point]

**Q.** With `CN(C)S(=O)(=O)c1ccc(C(=O)Nc2c(C(=O)Nc3ccc(F)cc3)oc3ccccc23)cc1` as the compound, how does the Potency read?
**A.** inactive

**Q.** Which Potency does the source give for `CCOC(=O)c1ccc(C(=O)OCC)c(NC(=S)Nc2ccc([N+](=O)[O-])cc2OC)c1` here?
**A.** inconclusive: 0.0355 µM [cytotoxic, full curve, poor fit]

**Q.** For `c1cnc2c(SCc3ccc(-c4nnco4)cc3)cccc2c1`, which Potency is on record?
**A.** inconclusive: 12.6 µM [cytotoxic, partial curve]

**Q.** Which Potency does the source give for `Cc1ccc2c(c1)C(N1CCCC1=O)CC(c1ccco1)N2` (stereo not given) here?
**A.** inconclusive: 12.6 µM [cytotoxic, single point]

**Q.** Which Potency does the source give for `Cc1ccc(NC(=O)NCCOCCn2c(=O)oc3ccccc32)c(C)c1` here?
**A.** inactive

**Q.** With `CN(C)c1ccc(C=Nc2ccccc2C(N)=O)cc1` as the compound, how does the Potency read?
**A.** inconclusive: 15.8 µM [cytotoxic, single point]

**Q.** With `COc1cc(/C=N/O)ccc1OCc1ccc(C(=O)O)cc1` as the compound, how does the Potency read?
**A.** active: 8.91 µM

**Q.** For `O=C(Nc1ccccn1)c1cc(-c2cccnc2)nc2ccc(Br)cc12`, which Potency is on record?
**A.** inactive

**Q.** With `Cc1ccc(S(=O)(=O)NCc2cn3c(C)csc3n2)cc1` as the compound, how does the Potency read?
**A.** inactive

**Q.** Which Potency does the source give for `CCc1ccccc1NC(=O)Cn1c(=O)n(CCCCCC(=O)NCc2ccc(C)cc2)c(=O)c2sccc21` here?
**A.** inconclusive: 3.98 µM [cytotoxic, single point]

**Q.** For `COc1ccccc1NC(=O)CSc1nnc(NC(=O)NC2CCCCC2)s1`, which Potency is on record?
**A.** active: 7.94 µM

**Q.** With `Cc1ccc(N2CC(c3nc(-c4ccc(Cl)cc4)no3)CC2=O)cc1F` (stereo not given) as the compound, how does the Potency read?
**A.** inconclusive: 12.6 µM [cytotoxic, single point]

**Q.** With `Fc1ccc(CN(C2=NCCN2)c2c(Cl)cccc2Cl)cc1` as the compound, how does the activity change, negative = cell killing read?
**A.** inconclusive: -34.2% [cytotoxic]

**Q.** For `CCOc1ccccc1NC(=O)CSc1nc2c(sc3ccccc32)c(=O)n1CCCC(=O)NC1CCCC1`, which Potency is on record?
**A.** inconclusive: 15.8 µM [cytotoxic, single point]

**Q.** With `COc1ccc(NC(=O)CSc2oc(-c3ccc(F)cc3)nc2S(=O)(=O)c2ccc(C)cc2)c(OC)c1` as the compound, how does the Potency read?
**A.** inconclusive: 2 µM [cytotoxic, partial curve]

**Q.** For `N#C/C(=C\c1ccc(Sc2ccc(Cl)cc2)o1)c1nc2ccccc2[nH]1`, which Potency is on record?
**A.** inactive

**Q.** With `CC1CCc2c(sc3nnn(CCCCOc4ccc(Cl)cc4)c(=O)c23)C1` (stereo not given) as the compound, how does the Potency read?
**A.** inactive

**Q.** For `Cc1ccc(CNC(=O)Cn2c(=O)ccc3cc(S(=O)(=O)N4CCC(C)CC4)ccc32)cc1`, which Potency is on record?
**A.** inconclusive: 2 µM [cytotoxic, partial curve]

**Q.** For `O=C(Nc1ccccc1C(F)(F)F)c1cc(-c2ccc3c(c2)OCCO3)on1`, which Potency is on record?
**A.** inconclusive: 7.94 µM [cytotoxic, partial curve]

**Q.** With `Cc1ccc(-n2nc3ccc(N)cc3n2)cc1` as the compound, how does the Potency read?
**A.** active: 7.94 µM

**Q.** With `COc1ccc(-c2cc(C(=O)N/N=C/c3ccc(OC)c(OC)c3)[nH]n2)cc1` as the compound, how does the Potency read?
**A.** inactive

**Q.** Which Potency does the source give for `O=C(Nc1ccc2nc(SCC(=O)N3CCc4ccccc43)sc2c1)c1cccc(F)c1` here?
**A.** inactive

**Q.** With `Cc1ccc(C(=O)Nc2ccccc2)cc1S(=O)(=O)Nc1ccc(Br)cc1` as the compound, how does the Potency read?
**A.** inconclusive: 25.1 µM [cytotoxic, single point]

**Q.** With `CC(=O)Nc1cc(C(=O)NCc2ccc(C)cc2)ccc1S(=O)(=O)c1ccc(Cl)cc1` as the compound, how does the Potency read?
**A.** inactive

**Q.** Which Potency does the source give for `CSc1cccc(NC(=O)Cn2c(=O)n(Cc3ccccc3)c(=O)c3sc4ccccc4c32)c1` here?
**A.** inconclusive: 0.005 µM [cytotoxic, full curve, poor fit]

**Q.** Which Potency does the source give for `Cc1oc(-c2cccc(Cl)c2)nc1CN1CCCC(C(=O)NCCc2ccc(Cl)cc2)C1` (stereo not given) here?
**A.** inconclusive: 25.1 µM [cytotoxic, single point]

**Q.** Which Potency does the source give for `CN(C(=O)CSc1nc(C2CCCC2)nc2c1c(=O)n(C)c(=O)n2C)c1ccccc1` here?
**A.** inconclusive: 12.6 µM [cytotoxic, partial curve]

**Q.** Which Potency does the source give for `COc1ccc(C(=O)CSc2nnc(NC(=O)C3CC(=O)N(c4ccccc4)C3)s2)cc1` (stereo not given) here?
**A.** inactive

**Q.** Which Potency does the source give for `CCOC(=O)c1ccc(NC(=O)CSc2nc(C)cc(=O)[nH]2)cc1` here?
**A.** inactive

**Q.** With `O=C(Nc1cccc(C(F)(F)F)c1)c1cc(S(=O)(=O)N2CCCC2)c[nH]1` as the compound, how does the Potency read?
**A.** inconclusive: 12.6 µM [cytotoxic, partial curve]

**Q.** With `Cc1ccc(CNC(=O)CCCCCn2c(=O)c3sccc3n(CC(=O)Nc3ccc(C)c(F)c3)c2=O)cc1` as the compound, how does the Potency read?
**A.** inconclusive: 25.1 µM [cytotoxic, single point]

**Q.** For `CCN1C(C(=O)c2ccccc2)=C(OC(=O)COc2ccc(OC)cc2)c2ccccc2S1(=O)=O`, which Potency is on record?
**A.** inconclusive: 0.501 µM [cytotoxic, full curve, poor fit]

**Q.** Which Potency does the source give for `O=C(Nc1ccc(-c2nc3ccccc3o2)c(O)c1)c1cc(-n2cnnc2)ccc1Cl` here?
**A.** inconclusive: 15.8 µM [cytotoxic, single point]
